Test results reported in PubChem BioAssay AID504333 (National Center for Advancing Translational Sciences (NCATS), 2011).
The campaign covered roughly 360,000 compounds. About 16,000 (4.4%) were called active. The inconclusive results got no clear call from the source; some entries with a clear call stand among them for comparison. Calls come from the whole dose curve; as a rule, active = well fitted inhibition curve with a large enough effect; inconclusive = small, poorly fitted or top-dose-only effect; inactive = no such curve, though single readings can be large or run the other way. Potencies beside an inconclusive call are fits to weak or partial responses and may not hold up.
% is set by controls: 0 for no effect and ±100 for the full control effect; potency is the fitted concentration of half-maximal effect; tags give direction and shape of the fitted curve.
Note: nearly all actives have a fitted effect of over 60% in size.

The compounds below were run against Bromodomain adjacent to zinc finger domain protein 2B (Homo sapiens) (UniProt Q9UIF8) (assay: qHTS Assay for Inhibitors of BAZ2B). Conditions: AlphaScreen BAZ2B-H3K14Ac peptide displacement; activity change, negative = inhibition: at 114 µM (top of the series) unless noted.
Chain of UniProt Q9UIF8 (Q9UIF8 whole entry, looked up, the tested form may be a part): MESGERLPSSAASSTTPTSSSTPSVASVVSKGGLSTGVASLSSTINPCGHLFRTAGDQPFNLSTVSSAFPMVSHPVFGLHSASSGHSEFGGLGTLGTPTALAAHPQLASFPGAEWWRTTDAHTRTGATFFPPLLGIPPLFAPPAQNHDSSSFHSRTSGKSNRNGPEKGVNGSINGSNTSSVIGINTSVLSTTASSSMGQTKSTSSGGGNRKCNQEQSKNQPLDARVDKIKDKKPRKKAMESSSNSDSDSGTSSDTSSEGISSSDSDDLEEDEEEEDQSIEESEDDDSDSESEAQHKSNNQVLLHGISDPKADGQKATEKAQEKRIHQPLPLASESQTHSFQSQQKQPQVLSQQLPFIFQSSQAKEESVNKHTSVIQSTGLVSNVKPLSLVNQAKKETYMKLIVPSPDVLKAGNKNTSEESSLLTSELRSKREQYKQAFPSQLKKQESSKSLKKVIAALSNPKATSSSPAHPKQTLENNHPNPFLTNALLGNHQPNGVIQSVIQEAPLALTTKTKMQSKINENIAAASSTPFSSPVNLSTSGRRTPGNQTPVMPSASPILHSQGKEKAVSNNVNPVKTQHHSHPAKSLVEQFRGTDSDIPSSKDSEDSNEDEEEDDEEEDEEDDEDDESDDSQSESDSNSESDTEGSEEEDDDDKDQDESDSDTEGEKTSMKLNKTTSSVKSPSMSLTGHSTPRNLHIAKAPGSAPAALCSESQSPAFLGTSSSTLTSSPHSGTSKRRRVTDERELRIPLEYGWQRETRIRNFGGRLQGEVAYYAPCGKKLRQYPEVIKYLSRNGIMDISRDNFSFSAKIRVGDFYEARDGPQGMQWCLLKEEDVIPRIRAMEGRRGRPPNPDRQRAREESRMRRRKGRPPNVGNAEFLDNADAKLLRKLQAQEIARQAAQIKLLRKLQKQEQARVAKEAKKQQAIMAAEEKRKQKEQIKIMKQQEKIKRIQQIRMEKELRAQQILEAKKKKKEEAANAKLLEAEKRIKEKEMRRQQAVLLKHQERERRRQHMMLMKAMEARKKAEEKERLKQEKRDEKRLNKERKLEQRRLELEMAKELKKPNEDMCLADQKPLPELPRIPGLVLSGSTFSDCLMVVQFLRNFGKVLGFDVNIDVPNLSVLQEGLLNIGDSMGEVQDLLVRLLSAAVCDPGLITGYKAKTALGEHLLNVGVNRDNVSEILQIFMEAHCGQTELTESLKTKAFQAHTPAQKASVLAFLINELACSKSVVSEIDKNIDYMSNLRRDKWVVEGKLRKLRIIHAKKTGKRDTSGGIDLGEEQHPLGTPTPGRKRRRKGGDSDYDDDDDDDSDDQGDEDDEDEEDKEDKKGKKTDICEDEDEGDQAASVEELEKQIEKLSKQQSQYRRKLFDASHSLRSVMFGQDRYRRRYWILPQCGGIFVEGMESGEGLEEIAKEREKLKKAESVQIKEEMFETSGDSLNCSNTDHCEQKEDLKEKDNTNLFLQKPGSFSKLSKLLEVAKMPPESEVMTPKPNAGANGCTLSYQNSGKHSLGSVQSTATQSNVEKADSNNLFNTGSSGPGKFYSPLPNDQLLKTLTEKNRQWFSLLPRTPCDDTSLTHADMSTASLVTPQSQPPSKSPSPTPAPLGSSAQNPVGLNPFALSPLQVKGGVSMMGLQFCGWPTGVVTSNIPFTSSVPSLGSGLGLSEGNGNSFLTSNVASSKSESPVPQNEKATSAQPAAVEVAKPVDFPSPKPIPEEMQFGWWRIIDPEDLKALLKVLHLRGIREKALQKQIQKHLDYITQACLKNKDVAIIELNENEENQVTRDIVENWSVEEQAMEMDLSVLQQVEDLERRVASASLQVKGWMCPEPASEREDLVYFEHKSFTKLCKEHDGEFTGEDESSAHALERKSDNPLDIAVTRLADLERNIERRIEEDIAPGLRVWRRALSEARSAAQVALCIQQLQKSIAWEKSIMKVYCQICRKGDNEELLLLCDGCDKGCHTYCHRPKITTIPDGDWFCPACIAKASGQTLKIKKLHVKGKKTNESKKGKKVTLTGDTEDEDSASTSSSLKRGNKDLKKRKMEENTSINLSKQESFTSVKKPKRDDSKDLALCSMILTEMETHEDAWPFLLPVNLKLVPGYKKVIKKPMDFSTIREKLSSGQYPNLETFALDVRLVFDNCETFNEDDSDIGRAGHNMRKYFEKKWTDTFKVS
Procedure, shortened: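 Protein-peptide AlphaScreen: BAZ2B 50 nM, b-H3K14Ac 50 nM, 1x PBS pH 7.4 + 0.01% Tween-20. Preincubation 30 min RT; cpd 30 min RT (top 110 uM); beads 20 min RT, light-protected.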
For `Cc1ccc(NC(=O)CN(C)Cc2c(O)ccc3ccccc23)cc1`, the “activity change, negative = inhibition” value was inactive: -32.6%.
`CC(=O)c1sc(-c2ccccc2)cc1NS(=O)(=O)c1ccc(C)cc1` was tested, and the “activity change, negative = inhibition” value was inactive: -16.8%.
`O=C1NC(=Nc2ccc3ccccc3c2)S/C1=C/c1ccco1` was tested, and the Potency was active: 20 µM.
`CCC1(C)NC(=O)N(CC(=O)Nc2sc3c(c2C(N)=O)CCC3)C1=O` (stereo not drawn) was tested, and the Potency was inconclusive: 89.1 µM [inhibitor, single point].
With `C#Cc1ccc([C@@H]2C=C(C(=O)NC3CC3)O[C@H](OCCCCO)C2)cc1` the “activity change, negative = inhibition” value was inactive: 4.15%.
With `CC1(C)CC(=O)C=C(c2cccc(O)c2)C1` the “activity change, negative = inhibition” value was inactive: 9.75%.
In the case of `COc1ccccc1N1CCN(C2CCN(C(=O)COc3cccc(C)c3)CC2)CC1`, the Potency is reported as active: 79.4 µM.
With `COc1ccc([N+](=O)[O-])cc1N(CC(O)CN(CC(C)C)CC(C)C)S(=O)(=O)c1ccccc1` (stereo not drawn) the Potency was inconclusive: 50.1 µM [inhibitor, partial curve].
For `CCN(CC)C(=O)CSc1nnc([C@@H](N)C(C)C)o1`, the Potency was inconclusive: 89.1 µM [inhibitor, single point].
In the case of `CCOC(=O)c1cccc(NC(=O)CC2C(=O)N(c3ccc(C)cc3)C(=O)N2Cc2cccc(OC)c2)c1` (stereo not drawn), the “activity change, negative = inhibition” value is reported as inactive: -11%.
With `CCn1cc(S(=O)(=O)N2CCN(c3ccc(Cl)cc3)CC2)cn1` the “activity change, negative = inhibition” value was inactive: -10.6%.
In the case of `CCCCc1cn([C@@H](CCCCN)C(=O)N2CCNCC2)nn1`, the Potency is reported as inconclusive: 89.1 µM [inhibitor, single point].
`Cc1cc(=O)[nH]c(SCC(=O)NN(c2ccccc2)c2ccccc2)n1` was tested, and the “activity change, negative = inhibition” value was inactive: 0.292%.
In the case of `CC1Cc2cc(/C(O)=C3/C(=O)C(=O)N(CCN4CCOCC4)C3c3ccc([N+](=O)[O-])cc3)ccc2O1` (stereo not drawn), the Potency is reported as inconclusive: 79.4 µM [inhibitor, single point].
For `O=C(CSc1nc2cc(Cl)ccc2s1)c1ccco1`, the “activity change, negative = inhibition” value was inactive: 43.6%.
In the case of `CCCc1[nH]n(-c2ccc([N+](=O)[O-])cc2)c(=O)c1C=NCCCn1ccnc1`, the Potency is reported as active: 50.1 µM.
For `Cc1cc(C)cc(NC(=O)OCCN2CCN(Cc3ccccc3)CCC2=O)c1`, the Potency was inconclusive: 0.708 µM [inhibitor, full curve, poor fit].
`COc1ccc(OCC(=O)NNC(=O)Cn2c(=O)cnc3ccccc32)cc1` was tested, and the Potency was inconclusive: 89.1 µM [inhibitor, single point].
`O=C(CCN1C(=O)/C(=C/c2ccccc2Cl)SC1=S)NCCCN1CCOCC1` was tested, and the Potency was inconclusive: 50.1 µM [inhibitor, partial curve].
In the case of `S=c1[nH]c2ncccc2o1`, the Potency is reported as inconclusive: 100 µM [inhibitor, single point].
For `O=C(Nc1ccccc1O)c1cc(S(=O)(=O)N2CCCC2)ccc1Cl`, the Potency was inconclusive: 79.4 µM [inhibitor, single point].
In the case of `O=C(OCCNc1nc(-c2ccccc2)nc2ccccc12)c1ccncc1`, the Potency is reported as inconclusive: 56.2 µM [inhibitor, partial curve].
In the case of `COc1ccc(OC)c(NC(=O)CSC2=Nc3ccccc3C3=NC(CC(=O)NCc4ccc(F)cc4)C(=O)N23)c1` (stereo not drawn), the “activity change, negative = inhibition” value is reported as inactive: -32.1%.
`CC1=NNC(=O)c2ccccc2O1` was tested, and the Potency was active: 50.1 µM.
For `C(=N\Nc1ncnc2sc3c(c12)CCC3)/c1ccncc1`, the “activity change, negative = inhibition” value was inactive: -29.8%.
In the case of `COc1ccccc1NS(=O)(=O)c1cccc(NC(=O)C2CC(=O)N(Cc3ccccc3)C2)c1` (stereo not drawn), the Potency is reported as inconclusive: 79.4 µM [inhibitor, single point].
With `Cc1cccc(Nc2nc(C)nc3c2oc2ccccc23)c1` the Potency was inconclusive: 79.4 µM [inhibitor, single point].
In the case of `Cc1ccccc1C1=CCN(c2ncc(NC(=O)c3ccc(Cl)cc3)cc2C(=O)O)CC1`, the Potency is reported as active: 50.1 µM.
`O=C(/C(N=Nc1cccc(C(F)(F)F)c1)=C(/O)c1cccs1)C(F)(F)F` was tested, and the Potency was inconclusive: 31.6 µM [inhibitor, full curve].
With `O=C(Nc1nnc(C2CC(=O)N(c3ccc(Cl)cc3)C2)s1)c1ccco1` (stereo not drawn) the “activity change, negative = inhibition” value was inactive: -5.6%.
With `Cc1ccc(-c2nn(CCC(=O)O)cc2/C=C\C(=O)c2ccc(Br)cc2)cc1` the Potency was inconclusive: 50.1 µM [inhibitor, partial curve].
In the case of `O=S(=O)(c1ccc(NC(=S)N/N=C/c2ccc(O)c(O)c2)cc1)N1CCOCC1`, the Potency is reported as inconclusive: 44.7 µM [inhibitor, partial curve].
For `Cc1ccc(-n2cc(CN3CCN(Cc4nccn4C)CC3)c(-c3cccc(C)c3)n2)cc1`, the Potency was inconclusive: 50.1 µM [inhibitor, partial curve].
For `O=C(Cn1nc(CNc2ccc(Cl)cc2)[n+]2c1CCCCC2)c1ccc(Br)cc1`, the Potency was inconclusive: 70.8 µM [inhibitor, single point].
`Cc1cc(C)n2c(Nc3ccc4c(c3)OCCO4)c(-c3ccc(C)o3)nc2n1` was tested, and the Potency was inconclusive: 79.4 µM [inhibitor, single point].
For `COc1ccccc1N1CCN(CCCC(=O)c2ccc(F)cc2)CC1`, the “activity change, negative = inhibition” value was inactive: 0.898%.
In the case of `O=C(COc1ccc2oc(-c3ccco3)cc(=O)c2c1)N1CCCCC1`, the Potency is reported as active: 50.1 µM.
With `Cc1ccccc1C(=O)Nc1c(C(=O)N(CCN(C)C)Cc2ccco2)oc2ccccc12` the Potency was inconclusive: 70.8 µM [inhibitor, single point].
For `O=C(N/N=C/c1ccc(OCc2ccccc2)cc1)c1cc[n+](Cc2ccccc2)cc1`, the “activity change, negative = inhibition” value was inactive: -12.3%.
For `CC(=O)C(=Cc1ccc(C(=O)O)cc1)C(C)=O`, the Potency was inconclusive: 79.4 µM [inhibitor, single point].
In the case of `Cc1ccc(NS(=O)(=O)c2ccc3c(c2)[C@H]2C=CC[C@H]2[C@@H](c2ccc(F)cc2)N3)cc1C`, the Potency is reported as inconclusive: 50.1 µM [inhibitor, partial curve].
With `O=C(Nc1ccccc1F)c1coc(=O)c(Br)c1` the Potency was inconclusive: 79.4 µM [inhibitor, partial curve].
For `Cn1nnc(NC(=S)NC(=O)Cc2ccccc2)n1`, the Potency was active: 35.5 µM.
For `COc1cccc(CN2CCN(Cc3cccc(Br)c3)CC2)c1OC`, the Potency was active: 20 µM.
In the case of `Cc1c(C)n(CCc2ccccc2)c2ncnc(NCCO)c12`, the Potency is reported as inconclusive: 70.8 µM [inhibitor, single point].
For `Cc1ccc(NC(=O)CN2C(=O)C3C4C=CC(C4)C3C2=O)cc1S(=O)(=O)N(C)C` (stereo not drawn), the “activity change, negative = inhibition” value was inactive: 7.84%.
With `COc1cccc(-c2nc(CS(=O)(=O)CC(=O)NCCCN3CCc4ccccc4C3)c(C)o2)c1` the Potency was inconclusive: 70.8 µM [inhibitor, single point].
`CCOCCCNC(=S)N(Cc1ccccc1)Cc1nc2ccccc2c(=O)[nH]1` was tested, and the “activity change, negative = inhibition” value was inactive: -33.6%.
With `Cc1cc(Br)ccc1OCCCCNC(C)(C)C` the Potency was active: 50.1 µM.
With `CN(C)c1ccc(CNc2ccc3c(c2)ncn3C(C)(C)C)cc1` the Potency was active: 15.8 µM.
In the case of `COc1ccc(C(=O)c2cn(Cc3cccc(C)c3)c3cc4c(cc3c2=O)OCO4)cc1`, the Potency is reported as inconclusive: 89.1 µM [inhibitor, single point].
For `Cc1ccc(-c2nc3ncccn3c2NC2CCCC2)o1`, the “activity change, negative = inhibition” value was inactive: -33.6%.
`COc1ccc(-c2nc(CC(=O)Nc3cccc(S(=O)(=O)NC4=NCCC4)c3)cs2)cc1` was tested, and the Potency was inconclusive: 89.1 µM [inhibitor, single point].
`COc1ccccc1N1CCN(/N=C/c2cccc(O)c2)CC1` was tested, and the Potency was active: 70.8 µM.
`COc1cccc(NC(=O)[C@H](C)NC(=O)N2CCn3c2nc2ccccc23)c1` was tested, and the Potency was inconclusive: 89.1 µM [inhibitor, single point].
`Cc1ccc(C)c(N2CCN(C(=O)c3ccc4nc(-c5ccco5)c(-c5ccco5)nc4c3)CC2)c1` was tested, and the Potency was inconclusive: 89.1 µM [inhibitor, single point].
With `CN(C)CCc1cc2c(c3c1ccc1ccccc13)OCO2` the Potency was inconclusive: 28.2 µM [inhibitor, partial curve].
For `C[C@@H]1C=C(C(=O)O)O[C@H](OCc2ccc(CO)cc2)C1`, the “activity change, negative = inhibition” value was inactive: -37.6%.
With `O=C(Cc1ccccc1)N/N=C/c1cccn1-c1ccc([N+](=O)[O-])cc1` the Potency was active: 25.1 µM.
For `COc1ccc(C2CC(=O)Nc3c2c(=O)n(C)c2nc4ccccc4n32)cc1` (stereo not drawn), the “activity change, negative = inhibition” value was inactive: -16.5%.
`O=C(COC(=O)c1c2c(nc3ccccc13)/C(=C/c1ccco1)CC2)NC1CCCC1` was tested, and the Potency was active: 10 µM.
In the case of `Cc1nn(CC(=O)NCCN2CCCCCC2)c(=O)c2nn(-c3ccccc3)c(C)c12`, the “activity change, negative = inhibition” value is reported as inactive: -15.8%.
`COC(=O)CC1=NN(c2ccccc2)C(=O)/C1=C\c1ccc(OC)cc1` was tested, and the Potency was inconclusive: 44.7 µM [inhibitor, partial curve].
For `Cc1conc1NC(c1cccs1)c1ccc2cccnc2c1O` (stereo not drawn), the Potency was active: 25.1 µM.
`NS(=O)(=O)c1ccc(Nc2nc(-c3ccccc3)cs2)cc1` was tested, and the Potency was inconclusive: 28.2 µM [inhibitor, single point].
For `Cc1cccc(C(=O)Nc2nnc(-c3ccco3)o2)c1`, the Potency was active: 44.7 µM.
`COc1ccc(NC(=O)CCC(=O)c2ccc(Cl)cc2)cn1` was tested, and the Potency was inconclusive: 89.1 µM [inhibitor, single point].
For `CCOC(=O)c1ccc(NC(=O)COc2ccc(S(=O)(=O)NC(C)CC)cc2)cc1` (stereo not drawn), the “activity change, negative = inhibition” value was inactive: 46.4% [at 57.1 µM].
With `Cc1ccc2oc(C(=O)N3CCC(O)(c4cccc(C(F)(F)F)c4)CC3)c(C)c2c1` the Potency was inconclusive: 89.1 µM [inhibitor, single point].
In the case of `COc1ccc(Nc2nc(N3CCCCC3)c3ccccc3n2)cc1`, the Potency is reported as inconclusive: 79.4 µM [inhibitor, single point].
`C=CCN1C=C2C(=O)C(C)(OC(=O)c3ccc(OC)cc3)C(=O)C(c3ccco3)=C2C=C1CCCC` (stereo not drawn) was tested, and the Potency was inconclusive: 44.7 µM [inhibitor, partial curve].
For `COC(=O)c1c(N)sc(Cc2ccccc2)c1C`, the Potency was inconclusive: 89.1 µM [inhibitor, single point].
`Cc1cc(C)cc(NC(=O)CNS(=O)(=O)c2ccc3nc(C)sc3c2)c1` was tested, and the “activity change, negative = inhibition” value was inactive: 18.7%.
